Data taken from the supplement of paper PMC4967469.
pIC50: −log10 of the molar value. A lower IC50 marks a more sensitive line; a fit beyond the top or the lowest dose is shown as a bound at that dose. The AUC spans the tested range (256-fold, ending at the top dose) of the same fit; values near 1 show little effect. For some assays here: The top dose, if marked as inferred, comes from the curve model; the source does not state it.

Tests used:
Assay in all cases: Viability of human cancer cell lines after 72 h of drug (GDSC screen)
Lapatinib = compound: CS(=O)(=O)CCNCc1ccc(-c2ccc3ncnc(Nc4ccc(OCc5cccc(F)c5)c(Cl)c4)c3c2)o1 [Lapatinib]; details: top dose 2 µM
Method: (§1)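 Human cancer cell lines in 384-well plates, medium with 10% serum, drug for 72 h over a 256-fold dose range (nine 2-fold or five 4-fold steps up to the top dose). Adherent lines were fixed and stained with the nucleic acid dye Syto60, suspension lines read with resazurin; signal relative to control wells, capped at 0 and 100%. One two-parameter sigmoid per drug and line, fitted in a mixed model over all curves with the slope shared within a line.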

SB590885 = compound: CN(C)CCOc1ccc(-c2nc(-c3ccncc3)c(-c3ccc4c(c3)CC/C4=N\O)[nH]2)cc1 [SB590885]; details: top dose 5 µM; top dose inferred
Method: as §1

TGX221 = compound: Cc1cc(C(C)Nc2ccccc2)c2nc(N3CCOCC3)cc(=O)n2c1 [TGX221]; details: top dose 10 µM
Method: as §1

PD-173074 = compound: CCN(CC)CCCCNc1ncc2cc(-c3cc(OC)cc(OC)c3)c(NC(=O)NC(C)(C)C)nc2n1 [PD-173074]; details: top dose 2 µM; top dose inferred
Method: as §1

| Cell Line | AUC (Lapatinib) | pIC50 (Lapatinib) | AUC (SB590885) | pIC50 (SB590885) | AUC (TGX221) | pIC50 (TGX221) | AUC (PD-173074) | pIC50 (PD-173074) |
| --- | --- | --- | --- | --- | --- | --- | --- | --- |
| RL (B-cell lymphoma, suspension) | 0.984 | < 5.70 | 0.99 | < 5.30 | 0.989 | < 5.00 | 0.99 | < 5.70 |
| ONS-76 (medulloblastoma, adherent) | 0.968 | < 5.70 | 0.883 | < 5.30 | 0.98 | < 5.00 | 0.977 | < 5.70 |
| KARPAS-231 (B-cell leukaemia, suspension) | 0.99 | < 5.70 | 0.994 | < 5.30 | 0.915 | 5.06 | 0.979 | < 5.70 |
| ST486 (Burkitt lymphoma, suspension) | 0.978 | < 5.70 | 0.989 | < 5.30 | 0.987 | < 5.00 | 0.978 | < 5.70 |
| SBC-1 (small cell lung carcinoma, suspension) | 0.989 | < 5.70 | 0.989 | < 5.30 | 0.98 | < 5.00 | 0.989 | < 5.70 |
| MHH-PREB-1 (B-cell leukaemia, suspension) | 0.969 | < 5.70 | 0.975 | < 5.30 | 0.943 | < 5.00 | 0.971 | < 5.70 |
| CCRF-CEM (lymphoblastic leukaemia, suspension) | 0.987 | < 5.70 | 0.922 | < 5.30 | 0.99 | < 5.00 | 0.957 | < 5.70 |
| HC-1 (hairy cell leukaemia, suspension) | 0.968 | < 5.70 | 0.987 | < 5.30 | 0.9 | < 5.00 | 0.982 | < 5.70 |
| HD-MY-Z (Hodgkin lymphoma, adherent) | 0.975 | < 5.70 | 0.959 | < 5.30 | 0.956 | < 5.00 | 0.986 | < 5.70 |
| KE-37 (lymphoblastic leukaemia, suspension) | 0.994 | < 5.70 | 0.975 | < 5.30 | 0.994 | < 5.00 | 0.914 | 5.77 |
| EW-24 (Ewing sarcoma, semi-adherent) | 0.909 | < 5.70 | 0.993 | < 5.30 | 0.993 | < 5.00 | 0.992 | < 5.70 |
| BE2-M17 (neuroblastoma, adherent) | 0.985 | < 5.70 | 0.967 | < 5.30 | 0.981 | < 5.00 | 0.909 | < 5.70 |
| DEL (lymphoid neoplasm, suspension) | 0.992 | < 5.70 | 0.994 | < 5.30 | 0.994 | < 5.00 | 0.994 | < 5.70 |
| SJSA-1 (bone, adherent) | 0.964 | < 5.70 | 0.929 | < 5.30 | 0.931 | < 5.00 | 0.984 | < 5.70 |
| MLMA (hairy cell leukaemia, semi-adherent) | 0.986 | < 5.70 | 0.953 | < 5.30 | 0.886 | < 5.00 | 0.981 | < 5.70 |
| PSN1 (pancreas, adherent) | 0.991 | < 5.70 | 0.814 | 5.66 | 0.99 | < 5.00 | 0.991 | < 5.70 |
| KELLY (neuroblastoma, adherent) | 0.986 | < 5.70 | 0.966 | < 5.30 | 0.989 | < 5.00 | 0.964 | < 5.70 |
| KARPAS-45 (lymphoblastic leukaemia, suspension) | 0.991 | < 5.70 | 0.983 | < 5.30 | 0.935 | < 5.00 | 0.93 | < 5.70 |
| A3-KAW (B-cell lymphoma, suspension) | 0.991 | < 5.70 | 0.992 | < 5.30 | 0.993 | < 5.00 | 0.993 | < 5.70 |
| HA7-RCC (kidney, adherent) | 0.978 | < 5.70 | 0.96 | < 5.30 | 0.927 | < 5.00 | 0.982 | < 5.70 |
| CGTH-W-1 (thyroid, adherent) | 0.986 | < 5.70 | 0.985 | < 5.30 | 0.981 | < 5.00 | 0.934 | < 5.70 |
| SW684 (fibrosarcoma, adherent) | 0.98 | < 5.70 | 0.983 | < 5.30 | 0.78 | 5.20 | 0.981 | < 5.70 |
| H9 (lymphoid neoplasm, suspension) | 0.986 | < 5.70 | 0.992 | < 5.30 | 0.975 | < 5.00 | 0.991 | < 5.70 |
| NB7 (neuroblastoma, adherent) | 0.966 | < 5.70 | 0.986 | < 5.30 | 0.956 | < 5.00 | 0.986 | < 5.70 |
| NB12 (neuroblastoma, adherent) | 0.967 | < 5.70 | 0.976 | < 5.30 | 0.975 | < 5.00 | 0.979 | < 5.70 |
| D-247MG (glioma, adherent) | 0.929 | < 5.70 | 0.958 | < 5.30 | 0.739 | 5.40 | 0.97 | < 5.70 |
| GCIY (stomach, adherent) | 0.921 | < 5.70 | 0.984 | < 5.30 | 0.873 | < 5.00 | 0.984 | < 5.70 |
| BC-1 (B-cell lymphoma, suspension) | 0.967 | < 5.70 | 0.982 | < 5.30 | 0.961 | < 5.00 | 0.987 | < 5.70 |
